# From PubChem BioAssay AID881 (National Center for Advancing Translational Sciences (NCATS), 2007)
# The whole screen tested about 110,000 compounds, of which about 610 (0.55%) were called active. Inconclusive results, whose numbers are uncertain, are shown with a selection of clear calls. Calls come from the whole dose curve; as a rule, active = well fitted inhibition curve with a large enough effect; inconclusive = small, poorly fitted or top-dose-only effect; inactive = no such curve, though single readings can be large or run the other way. Where the call is inconclusive, the potency comes from a doubtful curve fit.
# Target: Polyunsaturated fatty acid lipoxygenase ALOX15B (Homo sapiens) (UniProt O15296)
# Test: qHTS Assay for Inhibitors of 15-hLO-2 (15-human lipoxygenase 2); note: nearly all actives have a fitted effect of over 60% in size
# Settings: purified 15hLO-2, xylenol orange hydroperoxide absorbance; activity change, negative = inhibition: at 57.1 µM (top of the series) unless noted
# Excerpt: Assay Overview: NIH Molecular Libraries Screening Centers Network [MLSCN] NIH Chemical Genomics Center [NCGC] MLSCN Grant: MH081283-01A1 PI Name: Holman, T.R., University of California, Santa Cruz Human lipoxygenase 15hLO-2 is a member of the closely related lipoxygenase family of enzymes which catalyze the site-specific oxidation of arachidonic acid to various hormone precursor molecules and as such is a candidate for drug development in a variety of disease areas, such as cancer and inflammation. Inhibition of 15hLO-2 activity was screened by utilizing arachidonic acid as a substrate. The extent of hydroperoxide product formation was measured by a secondary chromogenic reaction in which xylenol orange (XO, Sigma-Aldrich, cat. number 39,818-7) reacts with the ferric ions produced from the reaction between the hydroperoxide and ferrous ions. The Fe(III)-XO complex is characterized with red-shifted absorbance at 560 nm. A purified preparation of human 15hLO-2 was supplied by Professor Ted Holman, University of California, Santa Cruz.
# Assay Protocol: Buffer: 25 mM Hepes pH 7.5, 0.01% Triton X-100. Reagents/Controls: Buffer in columns 3 and 4 as negative control (no enzyme). Substrate solution: 45 uM arachidonic acid (Sigma-Aldrich, St. Louis, MO) final concentration dispensed throughout the plate. Enzyme: 50 nM 15hLO-2 final concentration in columns 1, 2, 5-48. Column 1 is neutral (100% activity). Column 2 contained pin-transferred titration of NDGA (nordihidroguaiaretic acid, Sigma-Aldrich, N 5023, top concentration 10 mM in DMSO, then 1:2 dilution in duplicate). (Dilution factor: 23 nL into 4 uL.) Chromogenic detection reagent (divalent iron/xylenol orange, Fe-XO): 200 uM xylenol orange plus 300 uM ferrous ammonium sulfate prepared freshly in 50 mM sulfuric acid. Assay Steps: Three uL of enzyme were dispensed to 1536-well Greiner black clear bottom plates. Compounds and controls (23 nL) were transferred via Kalypsys PinTool. The plates were incubated for 15 min at room temperature, and then 1 uL of substrate solution was added to start the reaction. After room temperature incubation for 90 minutes, 4 uL of Fe-XO solution was added to each well followed by a short spin (1000 rpm, 15 sec) and the plates were then incubated for 30 min. The absorbance at 405 and 573 nm were measured using ViewLux (Perkin-Elmer) High-throughput CCD imager and absorbance protocol settings. The 573-to-405 absorbance ratio was used to compute reaction progress.
# % is set by controls: 0 for no effect and ±100 for the full control effect; potency is the fitted concentration of half-maximal effect; tags give direction and shape of the fitted curve.
# Chain of UniProt O15296 (O15296 whole entry, looked up): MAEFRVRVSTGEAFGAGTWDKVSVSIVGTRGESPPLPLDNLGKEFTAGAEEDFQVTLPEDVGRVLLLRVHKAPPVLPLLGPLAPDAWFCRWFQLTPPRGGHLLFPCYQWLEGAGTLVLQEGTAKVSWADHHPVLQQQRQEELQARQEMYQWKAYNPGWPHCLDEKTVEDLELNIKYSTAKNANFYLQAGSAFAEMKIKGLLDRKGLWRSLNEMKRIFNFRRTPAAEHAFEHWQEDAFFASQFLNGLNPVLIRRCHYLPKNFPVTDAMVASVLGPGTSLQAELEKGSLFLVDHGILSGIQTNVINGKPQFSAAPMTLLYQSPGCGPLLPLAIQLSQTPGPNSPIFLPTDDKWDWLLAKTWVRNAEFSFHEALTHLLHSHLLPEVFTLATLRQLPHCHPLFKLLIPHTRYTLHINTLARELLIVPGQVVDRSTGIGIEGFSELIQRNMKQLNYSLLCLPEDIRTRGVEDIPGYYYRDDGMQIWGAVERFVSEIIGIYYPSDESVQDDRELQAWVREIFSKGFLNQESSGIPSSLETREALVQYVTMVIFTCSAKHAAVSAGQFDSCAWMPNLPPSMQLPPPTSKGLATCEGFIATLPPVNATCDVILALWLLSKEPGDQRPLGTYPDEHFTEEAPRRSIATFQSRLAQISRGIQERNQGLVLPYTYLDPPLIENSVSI
SMILES,Potency,"activity change, negative = inhibition"
N#Cc1c(N)sc(=S)c2c1CCCC2,"inconclusive: 15.8 µM [inhibitor, partial curve]",
CC(C)(C)c1ccc(C(=O)CCCSC2=C(C#N)C(c3ccco3)C3=C(CCCC3=O)N2)cc1 (stereo unspecified),"inconclusive: 25.1 µM [inhibitor, single point]",
O=C(CN1CCCC(O)C1)N1c2ccccc2Sc2ccc(C(F)(F)F)cc21 (stereo unspecified),,inactive: 17.5%
N#CC1=C2SCN(Cc3ccccc3)CN2C(=O)CC1c1ccc2c(c1)OCO2 (stereo unspecified),"inconclusive: 25.1 µM [inhibitor, partial curve]",
O=c1c2[nH]c3ccccc3c2ncn1C1CCCCC1,"inconclusive: 5.01 µM [inhibitor, partial curve]",
NC(=O)c1c(N)sc2c1CCCC2,"inconclusive: 31.6 µM [inhibitor, single point]",
Cc1c(O)c(O)cc2c1oc1c3ccccc3oc(=O)c21,"inconclusive: 2 µM [inhibitor, full curve]",
CCC(=O)Nc1ccc(-c2cc(-c3ccccc3)nc(-c3ccc(NC(=O)CC)cc3)n2)cc1,"inconclusive: 31.6 µM [inhibitor, single point]",
C/C=C/Cn1c(SCc2ccccc2)nc2c1c(=O)[nH]c(=O)n2C,"inconclusive: 12.6 µM [inhibitor, partial curve]",
CSc1ccccc1NC(=O)c1noc2c1CCC2,"inconclusive: 25.1 µM [inhibitor, partial curve]",
COc1ccccc1NC(=S)N1C2CCC1CC(NC(=O)NC13CC4CC(CC(C4)C1)C3)C2 (stereo unspecified),"inconclusive: 20 µM [inhibitor, partial curve]",
CC(C)Cc1nc(N2CCN(C(=O)c3ccco3)CC2)c(C#N)c2c1CCC2,"inconclusive: 20 µM [inhibitor, partial curve]",
Cc1ccc(-c2nn(C)c(=O)c3ccccc23)cc1S(=O)(=O)N1CCCC1,,inactive: -5.42%
COc1ccc(-c2oc3ccccc3c(=O)c2O)cc1,"inconclusive: 1.58 µM [inhibitor, full curve]",
COc1ccc(OC)c(C(=O)CSc2nccc(-c3ccc(Br)cc3)n2)c1,,inactive: 5.03% [at 11.4 µM]
Nc1cc(-c2ccncc2)c[nH]c1=O,inactive,
Cc1cc(-c2nnc(-c3ccccc3)c(-c3ccccc3)n2)c(C)o1,"inconclusive: 10 µM [inhibitor, partial curve]",
O=C(NCc1ccco1)Nc1cccs1,"inconclusive: 20 µM [inhibitor, single point]",
Nc1ncnc2c1ncn2[C@@H]1O[C@@H](CO)[C@H](O)[C@@H]1O,,inactive: -5.95%
O=C1N2CCCc3cccc(c32)C12Nc1ccccc1S2 (stereo unspecified),"inconclusive: 39.8 µM [inhibitor, single point]",
CCOc1ccc(NC(=O)c2cc3c(=O)n(C)c4ccccc4c3n2C)cc1,,inactive: 9.24%
C=CCSc1nnc(CSc2nc3sc4c(c3c(=O)[nH]2)CCCC4)n1-c1ccccc1,"inconclusive: 31.6 µM [inhibitor, single point]",
CCCC(=O)Nc1nc(C(=O)OCC)cs1,"inconclusive: 0.158 µM [inhibitor, full curve]",
CS(=O)(=O)Nc1ccc(Nc2c3ccccc3nc3ccccc23)cc1,"inconclusive: 3.98 µM [inhibitor, single point]",

SMILES,Potency,"activity change, negative = inhibition"
CCOC(=O)c1c(C)oc2c1c1c(c3ccccc32)OCN(Cc2ccccn2)C1,,inactive: 37.5%
COC(=O)c1ccc(Cn2c(CN3CCOCC3)nc3ccccc3c2=O)o1,,inactive: 1.35%
O=c1[nH]c2c(cc1CNCCN1CCOCC1)c(-c1cccc(F)c1)nn2-c1ccccc1,,inactive: 35.2%
CC(C)c1ccc(N2CCN(C(=O)c3ccccc3NC(=O)/C=C(\C(=O)O)c3ccccc3)CC2)cc1,,inactive: -27.6%
COc1ccc(N2CCC(CNC(=O)Nc3ccc(OC)cc3OC)C2)cc1 (stereo unspecified),"inconclusive: 12.6 µM [inhibitor, partial curve]",
O=C(CSc1nnnn1-c1ccc2c(c1)OCCO2)Nc1nc2c(s1)CCCC2,,inactive: 10.1%
O=C(O)c1c(Cl)c(Cl)c(Cl)c(Cl)c1-c1c2cc(I)c(=O)c(I)c-2oc2c(I)c(O)c(I)cc12,active: 7.94 µM,
CSc1nc(SCCO)c2sc3nc(-c4ccco4)c4c(c3c2n1)CC(C)(C)OC4,"inconclusive: 15.8 µM [inhibitor, partial curve]",
C[C@H](NC(=O)c1ccc(Cl)c(Cl)c1)c1ccc(-c2ccccc2)cc1,,inactive: -1.14% [at 11.4 µM]
COc1ccc(/C=c2\sc3nc(-c4ccccc4OC)nn3c2=O)c(OC)c1,"inconclusive: 7.94 µM [inhibitor, single point]",
CCOC(=O)SC1=N/C(=C\c2ccc(N(C)C)cc2)C(=O)S1,"inconclusive: 6.31 µM [inhibitor, partial curve]",
CCOc1cc(/C=C\[N+](=O)[O-])ccc1OCC(=O)Nc1ccccc1C,"inconclusive: 10 µM [inhibitor, partial curve]",
CN(C)CCCN1c2ccc3ccccc3c2Sc2cccc(Cl)c21,"inconclusive: 2.51 µM [inhibitor, partial curve]",
Cn1c(SCC(=O)NCc2cccs2)nnc1-c1cccs1,,inactive: -2.46%
CCc1ccccc1N1CSC2=C(C#N)C(c3cc(OC)c(OC)cc3OC)CC(=O)N2C1 (stereo unspecified),active: 10 µM,
Cc1cc(SCC(=O)N/N=C/c2ccc(O)c(O)c2)c(C)cc1Br,"inconclusive: 10 µM [inhibitor, partial curve]",
O=C(Nc1ccc(N2CCCC2)cc1)C(Cl)c1ccccc1 (stereo unspecified),active: 12.6 µM,
COc1ccc(-n2c(=O)c(CCc3ccccc3)nc3cnc(N4CCN(C)CC4)nc32)cc1,,inactive: 43.6%
Oc1c(Cl)cc(Cl)cc1C(C#Cc1ccccc1)N1CCOCC1 (stereo unspecified),,inactive: -12.8% [at 11.4 µM]
CCOc1ccccc1NC(=O)c1cc(Cl)ccc1NC(=O)c1ccco1,,inactive: -9.27%
COc1cccc2oc(-c3ccc(O)cc3)cc(=O)c12,"inconclusive: 31.6 µM [inhibitor, partial curve, poor fit]",
Cc1ccc2[nH]c(=S)cc(C)c2c1,active: 12.6 µM,
CNC[C@@H](SC)c1ccc(O)c(O)c1,,inactive: -10.7% [at 11.4 µM]
CCc1ccc(C(=O)COC(=O)CNC(=O)c2ccc(N3C(=O)c4ccccc4C3=O)cc2)cc1,"inconclusive: 25.1 µM [inhibitor, partial curve]",

SMILES,Potency,"activity change, negative = inhibition"
COc1ccc(-c2nnc(SCC(=O)c3cc(C)n(Cc4cccs4)c3C)o2)cc1,"inconclusive: 39.8 µM [inhibitor, single point]",
Cc1nnc(NC(=O)C2COc3ccccc3O2)s1 (stereo unspecified),,inactive: -2.97%
CC(C)(C)NC(=O)CSc1nnc(Cc2ccc3c(c2)OCO3)n1C1CCCCC1,"inconclusive: 1.58 µM [inhibitor, single point]",
C/C(=C\C(=O)c1ccc(Cl)cc1)Nc1ccc(N2CCOCC2)cc1,"inconclusive: 25.1 µM [inhibitor, single point]",
CC(C)NC[C@H](O)c1ccc(O)c(O)c1,"inconclusive: 20 µM [inhibitor, single point]",
ClCCCl,,inactive: 1.75%
O=C(COc1ccc(/C=N/NC(=O)c2cc3ccccc3o2)cc1Br)Nc1ccccc1,"inconclusive: 3.16 µM [inhibitor, full curve, poor fit]",
COC(=O)c1sc2nc(-c3ccco3)ccc2c1N,"inconclusive: 3.98 µM [inhibitor, full curve]",
COC(=O)c1c(NC(=O)c2nc3nc(C)cc(C(F)F)n3n2)sc2c1CCC2,"inconclusive: 31.6 µM [inhibitor, single point]",
Cn1c(=O)n(CCC(=O)O)c2ccccc21,"inconclusive: 0.199 µM [inhibitor, full curve]",
COc1ccccc1Cc1noc(COc2cccc(C)c2C)n1,,inactive: 4.27%
O=C(Nc1ccccc1Cc1ccccc1)C1CC(=O)N(c2ccc3c(c2)OCCO3)C1 (stereo unspecified),"inconclusive: 25.1 µM [inhibitor, single point]",
Nc1c2ccccc2nc2c(O)cccc12,,inactive: -0.406% [at 25.6 µM]
Cc1ccc(S(=O)(=O)c2c(N)n(/N=C/c3ccco3)c3nc4ccccc4nc23)cc1C,active: 12.6 µM,
CC(=O)c1cc2c(cc1NC(=O)CN1CCCCCC1)OCO2,"inconclusive: 0.158 µM [inhibitor, full curve, poor fit]",
CCOC(=O)c1sc(SCC(=O)Nc2ccc(N(C)C)cc2)nc1N,"inconclusive: 31.6 µM [inhibitor, single point]",
CC(=O)c1cccc(S(=O)(=O)N2CCCC(c3nc(-c4ccc(C)o4)no3)C2)c1 (stereo unspecified),"inconclusive: 3.98 µM [inhibitor, full curve, poor fit]",
CN1[C@H](Cc2ccccc2)C=C[C@]1(C)C(=O)NCC1CC1,,inactive: -2.46%
S=C(NCCSCc1ccccc1Cl)Nc1ccccc1,"inconclusive: 31.6 µM [inhibitor, single point]",
Cc1ccc(NC(=O)c2ccc(OC(=O)c3cc4ccccc4o3)cc2)cc1,"inconclusive: 25.1 µM [inhibitor, single point]",
CC1(C)c2ccccc2N2CC(=O)NC21/C=C/c1ccco1 (stereo unspecified),"inconclusive: 3.98 µM [inhibitor, partial curve]",
CC[C@H](C(=O)[C@H](C)[C@H](O)[C@H](C)CCc1ccc(C)c(O)c1C(=O)O)[C@H]1O[C@](CC)([C@@H]2CC[C@@](O)(CC)[C@H](C)O2)C[C@H]1C,"inconclusive: 10 µM [inhibitor, partial curve, poor fit]",
COc1cc(C2CC(=O)N3CN(Cc4ccco4)CSC3=C2C#N)ccc1OCc1ccccc1 (stereo unspecified),"inconclusive: 15.8 µM [inhibitor, partial curve]",
